Our source for the AUC and IC50 values is the supplement of paper PMC4967469.

Lines with a small IC50 respond at low doses; where the fit passes the top or lowest dose, that dose stands as a limit. AUC, from the same fit, is the share of area under the viability curve across the 256-fold dose range; values near 1 show little effect. Any top dose called inferred comes from the curve model; the source does not state it.

A word on the IC50: it is the concentration at which inhibition is half-maximal.

Compound in this experiment: CC1=C(C(=O)Nc2cc3cn[nH]c3cc2F)C(c2ccc(C(F)(F)F)cc2)CC(=O)N1 [GSK429286A]
Briefly: Viability of human cancer cell lines after 72 h of drug (GDSC screen). As to conditions: top dose inferred. Here is the method: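 Human cancer cell lines in 384-well plates, medium with 10% serum, drug for 72 h over a 256-fold dose range (nine 2-fold or five 4-fold steps up to the top dose). Adherent lines were fixed and stained with the nucleic acid dye Syto60, suspension lines read with resazurin; signal relative to control wells, capped at 0 and 100%. One two-parameter sigmoid per drug and line, fitted in a mixed model over all curves with the slope shared within a line.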
Take “UACC-893 (breast, adherent, top dose 20 µM)”: the AUC worked out at 0.967 and the half-maximal inhibitory concentration (IC50) was > 20 µM.

Take “UM-UC-3 (bladder, adherent, top dose 20 µM)”: the AUC was determined as 0.953 and the half-maximal inhibitory concentration (IC50) is > 20 µM.

For the cell line “UMC-11 (lung carcinoid, adherent, top dose 20 µM)”, the AUC is 0.969 and the half-maximal inhibitory concentration (IC50) was > 20 µM.

For the cell line “UWB1.289 (ovary, adherent, top dose 20 µM)”, the AUC came to 0.972 and the half-maximal inhibitory concentration (IC50) is > 20 µM.

Regarding “VA-ES-BJ (soft tissue, adherent, top dose 20 µM)”, the AUC was 0.985 and the IC50 is > 20 µM.

As for “VAL (B-cell lymphoma, suspension, top dose 20 µM)”, the AUC stood at 0.861 and the half-maximal inhibitory concentration (IC50) stood at 17 µM.

With “VCaP (prostate, adherent, top dose 20 µM)”, the AUC was found to be 0.981 and the IC50 is > 20 µM.

Consider “VM-CUB-1 (bladder, adherent, top dose 20 µM)”, for which the AUC came to 0.988 and the 50% inhibitory concentration (IC50) is > 20 µM.

As to “VMRC-MELG (melanoma, adherent, top dose 20 µM)”, the AUC was 0.983 and the IC50 was > 20 µM.

As to “VMRC-RCW (kidney, adherent, top dose 20 µM)”, the AUC is 0.987 and the IC50 is > 20 µM.

Turning to “VMRC-RCZ (kidney, adherent, top dose 20 µM)”, the AUC is 0.711 and the half-maximal inhibitory concentration (IC50) was found to be 5.5 µM.

For “WIL2-NS (lymphoid neoplasm, suspension, top dose 20 µM)”, the AUC turned out to be 0.921 and the half-maximal inhibitory concentration (IC50) was > 20 µM.

Turning to “WM35 (melanoma, adherent, top dose 20 µM)”, the AUC was found to be 0.981 and the half-inhibitory concentration (IC50) is > 20 µM.

Turning to “WM278 (melanoma, adherent, top dose 20 µM)”, the AUC worked out at 0.968 and the IC50 was > 20 µM.

Take “WM793B (melanoma, adherent, top dose 20 µM)”: the AUC was 0.924 and the IC50 is > 20 µM.

On to “WM1552C (melanoma, adherent, top dose 20 µM)”, for which the AUC was determined as 0.948 and the 50% inhibitory concentration (IC50) is > 20 µM.

As to “WM-115 (melanoma, adherent, top dose 20 µM)”, the AUC came out at 0.972 and the IC50 was > 20 µM.

Consider “WSU-DLCL2 (B-cell lymphoma, suspension, top dose 20 µM)”, for which the AUC is 0.935 and the concentration for half-maximal inhibition (IC50) was > 20 µM.

Turning to “WSU-NHL (lymphoid neoplasm, suspension, top dose 20 µM)”, the AUC was 0.952 and the IC50 was > 20 µM.

Turning to “YAPC (pancreas, adherent, top dose 20 µM)”, the AUC came out at 0.975 and the concentration for half-maximal inhibition (IC50) was > 20 µM.

With “YH-13 (glioma, adherent, top dose 20 µM)”, the AUC came out at 0.856 and the IC50 stood at 17.6 µM.

On to “YKG-1 (glioma, adherent, top dose 20 µM)”, for which the AUC is 0.959 and the IC50 was > 20 µM.

For the cell line “YMB-1-E (breast, adherent, top dose 20 µM)”, the AUC was 0.98 and the 50% inhibitory concentration (IC50) is > 20 µM.

Regarding “YT (lymphoid neoplasm, suspension, top dose 20 µM)”, the AUC stood at 0.896 and the IC50 amounted to 18 µM.

In the case of huH-1 (liver, adherent, top dose 20 µM), the AUC amounted to 0.984 and the 50% inhibitory concentration (IC50) was > 20 µM.

In the case of “no-10 (glioma, adherent, top dose 20 µM)”, the AUC amounted to 0.924 and the IC50 was > 20 µM.

For the cell line “no-11 (glioma, adherent, top dose 20 µM)”, the AUC stood at 0.944 and the concentration for half-maximal inhibition (IC50) was > 20 µM.
